Source: PubChem BioAssay AID1508624 (National Center for Advancing Translational Sciences (NCATS), 2021)
Out of some 48,000 compounds screened, about 120 (0.25%) were called active. Another 4% or so got no clear call; they are omitted. Calls come from the whole dose curve; as a rule, active = well fitted activation curve with a large enough effect; inconclusive = small, poorly fitted or top-dose-only effect, or another doubt; inactive = no such curve, though single readings can be large or run the other way. The list shows a part of the results.

Experiment: Primary qHTS for Identification of Small Molecule Activators of Huntingtin-Antisense Promoter Activity; note: nearly all actives have a fitted effect of over 55% in size
Conditions: HEK293 HTT-AS promoter firefly luciferase reporter (activity 0% = vehicle and -100% = no light), 24 h; series mostly up to 57.5 µM; activity change, positive = activation: at the top concentration
In short: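 Firefly luciferase signal from promoter-reporter HEK293 cells was scaled between vehicle (0%) and zero RLU (-100%). Compounds were tested at final concentrations of up to 57.5 uM over 24 h at 37 degrees C. PTC124 at 50 uM final served as control inhibitor.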

Activity change, positive = activation, inactive:
CC1=C(C(=O)Nc2ccc(Cl)cc2)C(c2cccs2)n2nc(SCc3cccc(C)c3)nc2N1 (configuration not stated) 5.77%
Cc1ccc(NC(=O)c2cnc(SCC(=O)N3CCCc4ccccc43)n(C)c2=O)cc1 -4.42%
CC(C)(C)OC(=O)N1CCC(c2c(C(=O)N3CCN(c4ccccc4F)CC3)cnn2-c2ccccc2Cl)CC1 -23%
CCOc1ccc(NC(=O)CCNS(=O)(=O)c2ccc3c(c2)CCCC(=O)N3)cc1 -10.6%
CCOc1ccc(NC(=O)c2c(NCc3cccnc3)sc3c2CCC(C)C3)cc1 (configuration not stated) -3.78%
CCN(CC)C(=O)Cn1c(=O)n(-c2ccc(C)c(C)c2)c(=O)c2c(C)c(C(=O)N(CC)CC)sc21 0.597%
CC(=O)c1sc(NC(=O)c2c(-c3ccccc3)c(-c3ccccc3)nn(C)c2=O)nc1C -14.9%
CCN1CCN(C(=O)c2cnn(-c3ccc(F)cc3F)c2C2CCN(C(=O)OC(C)(C)C)CC2)CC1 -9.29%
CC1CCc2onc(C(=O)N3CCN(c4ccc(F)cc4)CC3)c2C1 (configuration not stated) -30%
CCCCCN1C(C(=O)c2ccccc2)=C(NC(=O)c2ccc(C)cc2)c2ccccc2S1(=O)=O -18.1%
COc1ccc(OC)c(NC(=O)c2cnc(Nc3ccc(C)c(Cl)c3)c3ccccc23)c1 -18.7%
CC(=O)c1ccc(O)c(C(N)=O)c1 -2.59%
CC(C)Cn1c(C2CC(=O)N(c3ccccc3Cl)C2)nc2ccccc21 (configuration not stated) -2.2%
Cc1oc(-c2ccc(C(=O)NCCN(C)C)cc2)nc1CS(=O)(=O)c1ccccc1 5.31%
O=C(Cn1nc(-c2ccccc2)nc(Cc2ccccc2)c1=O)Nc1ccc(Cl)cc1 0.137%
Cc1cccc(NC(=O)Cn2nnc(C(=O)NCc3ccco3)c2N)c1 -13.7%
Cc1cnc(Nc2ccc(F)cc2Cl)nc1-c1c[nH]c(C(=O)N[C@H](CO)c2cccc(Cl)c2)c1 -57.2%
COc1ccc(Br)cc1C(=O)Nc1ccc(-c2nc3ncccc3o2)cc1C -6.42%
Cc1cccc(-n2c(N)cc(=O)nc2SCC(=O)Nc2ccc(F)cc2)c1C -6.43%
Cc1ccc(C(=O)NCC(=O)OCc2cc(=O)n3ccsc3n2)cc1 -0.0206%
CCc1ccc(NC(=O)CSc2ccc3nc(-c4ccc(OC)cc4)cn3n2)cc1 14.5%
CCOC(=O)CCC(=O)Nc1nnc2n1CCS2 -9.4%
O=c1c(NCc2ccccc2Cl)nccn1-c1ccccc1 9.14%
CC(=O)N1CCc2cc(S(=O)(=O)NC(CC(C)C)C(=O)NCc3ccccc3Cl)ccc21 (configuration not stated) -23.3%
COc1ccc(CNC(=O)CCc2c(C)c3cc4c(C)c(C)oc4cc3oc2=O)cc1 -12.7%
CC(=O)Nc1ccc(-c2nnc3n(Cc4ccc(C)cc4)c(=O)c4ccccc4n23)cc1 4.87%
CCCCNc1ccc(C(=O)OCCN(C)C)cc1 6.92%
CCCCCOc1ccc(Cn2c(=O)oc3ccc(C)cc32)cc1OC -32.5%
CCC(=O)N1CCc2cc(Br)cc(S(=O)(=O)N3CCC(C(=O)Nc4ccccc4F)CC3)c21 -18.2%
Cc1cc(C)cc(C(=O)n2nc(C)c(S(=O)(=O)N3CCCCCC3)c2C)c1 -21.7%
O=C(Nc1ccc(Cl)cc1Cl)c1cc(S(=O)(=O)N2CCCCCC2)ccc1F -16.2%
CCCCS(=O)(=O)c1oc(-c2cccs2)nc1S(=O)(=O)c1ccc(F)cc1 -93.6%
O=C1CC(c2cc(F)cc(F)c2)c2cc3c(cc2N1)OCO3 (configuration not stated) -25.8%
Cc1c(C(=O)N2CCN(c3ccc(F)cc3)CC2)sc2nc3n(c(=O)c12)CCC3 -4.78%
O=C(Cn1ccn(-c2ccc(F)cc2)c(=O)c1=O)Nc1ccccc1C(F)(F)F -10.5%
CCCCc1nn2c(=O)cc(COC(=O)c3ccccc3NC(=O)c3cccs3)nc2s1 0%
COC(=O)c1ccccc1NC(=O)c1cnn(-c2ccc(F)cc2)c1-n1cccc1 -16.7%
Cc1ccc(CN(C(=O)COc2ccccc2[N+](=O)[O-])c2ccccn2)cc1 -13.9%
CCCCCOC(=O)Nc1nc(=O)n([C@@H]2O[C@H](C)[C@@H](O)[C@H]2O)cc1F 1.8%
CCCN(CCC)CCNC(=O)CN1C(=O)COc2ccc(S(=O)(=O)N3CCOCC3)cc21 -9.18%
CCC(CC)C(=O)Nc1nnc(S(=O)(=O)N2CCc3ccccc32)s1 -13.4%
Cc1cccc(OCC(=O)NCCc2nc3ccccc3[nH]2)c1C -7.45%
O=C(NCc1ccccc1Cl)C1CCN(C(=O)N2CCOc3ccccc32)CC1 -11.9%
CCOc1ccc(-n2nc(CO)c(C(=O)NCc3ccccn3)n2)cc1 8.1%
COC(=O)CSc1nc2sc3c(c2c(=O)n1-c1ccc(C)cc1)CC(C(C)C)OC3 (configuration not stated) -10.4%
CCN(CC)S(=O)(=O)c1ccc2c(c1)N(CC(=O)Nc1ccc(OC)cc1)C(=O)CS2 -3.13%
Cc1ccccc1CNC(=O)c1oc2c(c1C)-c1nn(Cc3ccc(Cl)cc3)cc1CC2 -31.5%
CCOc1ccc(NC(=O)C2CCCN(c3cnccn3)C2)cc1 (configuration not stated) 12.9%
c1cc(OCCN2CCCCC2)cc(-c2n[nH]c3ccc(-c4ncn[nH]4)cc23)c1 -21%
CCOc1ccc(Cl)cc1CNCCCSc1nnnn1C 5.5%
COc1ccc(/C=C/C(=O)N2CCC(c3nc4ccccc4o3)CC2)cc1OC -30.6%
COc1ccc(OCC(=O)N2CCN(C(=O)c3cc(OC)c(OC)c(OC)c3)CC2)cc1 -1.6%
CCOc1ccc(C2N3CC4(C(C)C)CN2CC(C(C)C)(C3)C4=O)cc1OC (configuration not stated) -19.1%
CCOc1ccccc1NC(=O)N(C)CCc1c(C)nn(CC)c1C -3.52%
Cc1ccc(NC(=O)c2ccc(=O)n(CC(=O)Nc3c(C)cc(C)cc3C)n2)cc1 -24.4%
Cc1ccc(COc2ccc3oc(-c4ccccc4)c(C(=O)O)c3c2)cc1 -3.69%
COc1ccc(-n2nc(C(=O)Nc3ccc(Br)cc3C)c3c4ccccc4n(C)c3c2=O)cc1 -3.93%
CCOc1ccc(C2C=C(c3cccc(OC)c3)Nc3nnnn32)cc1 (configuration not stated) -25.3%
COc1ccc(C(=O)N2CC(=O)Nc3ccc(C)cc3C2c2ccccc2)cc1OC (configuration not stated) -4.57%
CC(C)(C)c1ccc(C(=O)NNc2ncnc3c2cnn3-c2ccccc2)cc1 -7.52%
CCN(C(=O)Cn1c(SCC(=O)Nc2ccc(OC)cc2)nc2ccccc21)c1cccc(C)c1 -18.8%
O=C(COc1ccccc1)NCC(c1cccs1)S(=O)(=O)c1ccc(Cl)cc1 (configuration not stated) -26.2%
